Measured values from the supplement of paper PMC11417369.
± gives the standard deviation of the averaged measurements. The list shows a part of the results.

These sequences were tested on PfAP2-I AP2 domain 3 (GST-tagged) (assay: gcPBM binding intensity (ln(normalized median fluorescence intensity)); higher = stronger DNA binding).
In short: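 DNA-binding domains from P. falciparum, fused to GST and produced in E. coli, were put on an Agilent 4 × 180k double-stranded probe array for 1 h in 1× PBS holding 1% milk, 0.2 mg/ml BSA, 0.5% salmon testes DNA and 0.03% Triton X-100. Probes were primer-extended, 36 bp long and drawn from intergenic genomic regions, with negative controls included. After Alexa488 anti-GST antibody detection and a 488 nm scan, binding intensity was set as the highest Masliner-normalised natural-log median intensity across replicate spots of either probe orientation.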
With “AAAAGTAAAAAAAAAAAAAGTAAAAAAAAAAAAAAA [CACACA_negctrl_site389]” the “gcPBM binding intensity (ln)” value was 7.99 ± 0.97.
“TTACAGATATTTATCTGTACATATATTTAAAAATAT [XGTACX_site7431]” was tested, and the “gcPBM binding intensity (ln)” value was 7.59 ± 0.34.
In the case of “TAATTTTTTTAAAAGCGTACATTTAAAAAAAAATAT [XGTACX_site2736]”, the “gcPBM binding intensity (ln)” value is reported as 7.89 ± 0.12.
In the case of “TTTTTAAATTCTTTAATATGTTTTATATATCAAAAT [CACACA_negctrl_site75]”, the “gcPBM binding intensity (ln)” value is reported as 7.45 ± 0.36.
With “TCTTATCATTTTAAATCACACACATATATATATATA [CACACA_site8925]” the “gcPBM binding intensity (ln)” value was 9.32 ± 0.44.
With “TTATTTTATTTAGGGTGTACCCAATTTTTCCATATG [XGTACX_site4957]” the “gcPBM binding intensity (ln)” value was 7.74 ± 0.43.
With “AAAAATTTTTTACATCGTACAGATATATATAATAAA [XGTACX_site3331]” the “gcPBM binding intensity (ln)” value was 8.09 ± 0.46.
In the case of “ATTTATATTTATAAATGTACACATATATATTTCATT [XGTACX_site2723]”, the “gcPBM binding intensity (ln)” value is reported as 7.79 ± 0.45.
In the case of “TCCTATAATTTTTTAATCAAAATATTTTATCCTTTG [CACACA_negctrl_site793]”, the “gcPBM binding intensity (ln)” value is reported as 7.58 ± 0.73.
“TGTACATATATATATATATATGTTACTGAAATAAAA [CACACA_negctrl_site1658]” was tested, and the “gcPBM binding intensity (ln)” value was 8.12 ± 0.23.
With “AAGAATAACTTTTATACATGCAGCATAATATATTGT [TGCATGCA_site605]” the “gcPBM binding intensity (ln)” value was 8.01 ± 0.7.
For “CTTTTATAATTCATATGTACTTATTTTTAACATAGG [XGTACX_site7808]”, the “gcPBM binding intensity (ln)” value was 7.96 ± 0.4.
With “TCTTTTAACACATGTGATATTATTTAATAACAATAA [CACACA_negctrl_site339]” the “gcPBM binding intensity (ln)” value was 7.74 ± 0.49.
“GGTATACACAAGTATACACACATATAAATATAAATA [CACACA_site7511]” was tested, and the “gcPBM binding intensity (ln)” value was 7.53 ± 0.56.
For “AATAACCACAGACACACACACATATAAATATAAATA [CACACA_site7631]”, the “gcPBM binding intensity (ln)” value was 8.03 ± 0.33.
In the case of “GTGATTAATATATACACACATACATATATATATATA [CACACA_site2817]”, the “gcPBM binding intensity (ln)” value is reported as 9.1 ± 0.2.
In the case of “ATATATATGTATACATGTACATATTTTATTATGTGC [XGTACX_site7207]”, the “gcPBM binding intensity (ln)” value is reported as 7.9 ± 0.61.
“GATAAAACGTTATGCACACGTACGTGAGTATTTATA [CACACA_site1570]” was tested, and the “gcPBM binding intensity (ln)” value was 10.1 ± 0.3.
In the case of “AACAAAACTTTGGATACATGCAAAATTTTTAAATGA [TGCATGCA_site249]”, the “gcPBM binding intensity (ln)” value is reported as 7.5 ± 0.86.
For “AATGATAAATAAAAAGCATGCAACAAATAAAAATAA [TGCATGCA_site453]”, the “gcPBM binding intensity (ln)” value was 7.94 ± 0.76.
For “GTTTTTTTGTTTTAAAGTACTTAAAAAAAAAATATA [XGTACX_site6998]”, the “gcPBM binding intensity (ln)” value was 8 ± 0.13.
With “AATGTTTATTTTGTTTGTACATAAAATGAATAAAAT [XGTACX_site1456]” the “gcPBM binding intensity (ln)” value was 7.86 ± 0.35.
In the case of “TATATATATTTATGCACACAAAATATATTATAGAAT [CACACA_site3740]”, the “gcPBM binding intensity (ln)” value is reported as 9.99 ± 0.4.
With “GTTATATATTTTTATGCATGCATTTTTAAATATATA [TGCATGCA_site175]” the “gcPBM binding intensity (ln)” value was 8.1 ± 0.63.
With “TTATTCCTTTTCCTTTTTTTTTTTTAACCAAAAAAA [CACACA_negctrl_site309]” the “gcPBM binding intensity (ln)” value was 7.86 ± 0.4.
In the case of “ATACATAAATTTTGTACACACAAAAAAAAAAAAGCT [CACACA_site1351]”, the “gcPBM binding intensity (ln)” value is reported as 8.04 ± 0.58.
For “TTTATATATATAAATATGTAGATAACAATATTCTGA [TGCATGCA_negctrl_site554]”, the “gcPBM binding intensity (ln)” value was 7.38 ± 0.45.
“AAAATATACATATATGCATGCATATAAATAAAAAAA [TGCATGCA_site812]” was tested, and the “gcPBM binding intensity (ln)” value was 7.86 ± 0.75.
“ATAAAAATATTACGCACACACAAACTTATTCATTAT [CACACA_site1969]” was tested, and the “gcPBM binding intensity (ln)” value was 9.22 ± 0.028.
“TTGTTCAAACAAAAAATAAAATAATTGAAAATAAAA [CACACA_negctrl_site812]” was tested, and the “gcPBM binding intensity (ln)” value was 7.43 ± 0.71.
With “GTAACTTTATTATACTGTACTATTATATAAGCACAC [XGTACX_site2859]” the “gcPBM binding intensity (ln)” value was 8.95 ± 0.23.
For “ATTACAATATATACGTGTACATATTACCACCGCTAC [XGTACX_site2308]”, the “gcPBM binding intensity (ln)” value was 8.46 ± 0.7.
“TGTAAAAAATTTAACACACACATATATATATATATA [CACACA_site2585]” was tested, and the “gcPBM binding intensity (ln)” value was 9.55 ± 0.4.
For “TAGAATAAGATAGATATACACACCATTATAAATATA [CACACA_site2500]”, the “gcPBM binding intensity (ln)” value was 7.67 ± 0.38.
In the case of “AAAAAAAAAAGACACACACACAAAAAAAGATATATA [CACACA_site6645]”, the “gcPBM binding intensity (ln)” value is reported as 7.68 ± 0.59.
For “TTACAAAATAAGAGGCACAAACACAAAAAAAAATAA [CACACA_negctrl_site574]”, the “gcPBM binding intensity (ln)” value was 7.97 ± 0.58.
With “GCACACATATAATAATGTACATATATATATTTAAAA [XGTACX_site4561]” the “gcPBM binding intensity (ln)” value was 7.96 ± 0.44.
For “TATTGATTATTTGAATGTACTTATTATATTAAATAT [XGTACX_site1304]”, the “gcPBM binding intensity (ln)” value was 7.57 ± 0.13.
For “ACACGCACATATATATAAATATATATATATATAAAT [CACACA_negctrl_site1781]”, the “gcPBM binding intensity (ln)” value was 7.75 ± 0.26.
In the case of “AATAAAAATATTTTTACATGCAAATGTTATATATTT [TGCATGCA_site1056]”, the “gcPBM binding intensity (ln)” value is reported as 7.64 ± 0.78.
With “AAAAAAAATTATTATGAACACACATTTATTATATTC [CACACA_site8443]” the “gcPBM binding intensity (ln)” value was 7.3 ± 0.56.
For “ATTCTACACAGACATACACACATATATATATATATA [CACACA_site5826]”, the “gcPBM binding intensity (ln)” value was 9.34 ± 0.56.
In the case of “TAATATGATCTTAATAGTACTTTATTAATAATAACC [XGTACX_site1953]”, the “gcPBM binding intensity (ln)” value is reported as 7.59 ± 0.49.
For “TATATATGTTTATGTAGTACTATATATCCCTTTCTT [XGTACX_site7049]”, the “gcPBM binding intensity (ln)” value was 7.61 ± 0.53.
In the case of “AAAAATAAAATGGACACACACGTTCAAATTTAGATT [CACACA_site5186]”, the “gcPBM binding intensity (ln)” value is reported as 7.65 ± 0.71.
For “GGATGCACACAAAAGGGTACATAAGAAAAAAACAGG [XGTACX_site8570]”, the “gcPBM binding intensity (ln)” value was 8.61 ± 0.54.
For “CACGCACAGATATATACACACTTTTATTTAAATAAC [CACACA_site6852]”, the “gcPBM binding intensity (ln)” value was 8.06 ± 0.28.
With “AAATATATATATAGTTGTACATATATCGTATATATT [XGTACX_site7867]” the “gcPBM binding intensity (ln)” value was 7.57 ± 0.45.
For “TTCACTAATAAATACGCACACATATACAGATATATA [CACACA_site4887]”, the “gcPBM binding intensity (ln)” value was 8.34 ± 0.28.
“TGGGTAAACAAACACACACACATATATATATATATA [CACACA_site1992]” was tested, and the “gcPBM binding intensity (ln)” value was 9.35 ± 0.13.
For “AGTTGTTACGAACATACACACGAACATAGACACGGA [CACACA_site8102]”, the “gcPBM binding intensity (ln)” value was 8.04 ± 0.73.
In the case of “ATGAGTGTAATAATATGTACATAACCTACATAATTT [XGTACX_site852]”, the “gcPBM binding intensity (ln)” value is reported as 8.11 ± 0.42.
With “AAAAAAAAATATATAAACACACATATTTATATACAC [GTGCAC_negctrl_site545]” the “gcPBM binding intensity (ln)” value was 7.67 ± 0.41.
“TTATTTAAATAATATGTACACACATTTAAAAAATTA [CACACA_site8912]” was tested, and the “gcPBM binding intensity (ln)” value was 7.83 ± 0.2.
For “AAGTTATATTTGTGTACACATAATTTTATACTAATA [CACACA_site5553]”, the “gcPBM binding intensity (ln)” value was 8.82 ± 0.33.
“AATATTAAACAAAATAAATATATAAAAAATAAATAA [GTGCAC_negctrl_site93]” was tested, and the “gcPBM binding intensity (ln)” value was 7.58 ± 0.5.
